Laboratory results published in PMC4336329 (PLoS ONE, 2015).
Out of some 310,000 compounds screened, about 2,200 (0.71%) showed an effect of 50% or more. Effects have a minus sign here. This is one part of the list.

molecular target: human ether-à-go-go-related gene (hERG) potassium channel (human, UniProt Q12809); assay: primary screen, population patch clamp on CHO cells stably expressing hERG
Sequence (Q12809 whole entry, looked up): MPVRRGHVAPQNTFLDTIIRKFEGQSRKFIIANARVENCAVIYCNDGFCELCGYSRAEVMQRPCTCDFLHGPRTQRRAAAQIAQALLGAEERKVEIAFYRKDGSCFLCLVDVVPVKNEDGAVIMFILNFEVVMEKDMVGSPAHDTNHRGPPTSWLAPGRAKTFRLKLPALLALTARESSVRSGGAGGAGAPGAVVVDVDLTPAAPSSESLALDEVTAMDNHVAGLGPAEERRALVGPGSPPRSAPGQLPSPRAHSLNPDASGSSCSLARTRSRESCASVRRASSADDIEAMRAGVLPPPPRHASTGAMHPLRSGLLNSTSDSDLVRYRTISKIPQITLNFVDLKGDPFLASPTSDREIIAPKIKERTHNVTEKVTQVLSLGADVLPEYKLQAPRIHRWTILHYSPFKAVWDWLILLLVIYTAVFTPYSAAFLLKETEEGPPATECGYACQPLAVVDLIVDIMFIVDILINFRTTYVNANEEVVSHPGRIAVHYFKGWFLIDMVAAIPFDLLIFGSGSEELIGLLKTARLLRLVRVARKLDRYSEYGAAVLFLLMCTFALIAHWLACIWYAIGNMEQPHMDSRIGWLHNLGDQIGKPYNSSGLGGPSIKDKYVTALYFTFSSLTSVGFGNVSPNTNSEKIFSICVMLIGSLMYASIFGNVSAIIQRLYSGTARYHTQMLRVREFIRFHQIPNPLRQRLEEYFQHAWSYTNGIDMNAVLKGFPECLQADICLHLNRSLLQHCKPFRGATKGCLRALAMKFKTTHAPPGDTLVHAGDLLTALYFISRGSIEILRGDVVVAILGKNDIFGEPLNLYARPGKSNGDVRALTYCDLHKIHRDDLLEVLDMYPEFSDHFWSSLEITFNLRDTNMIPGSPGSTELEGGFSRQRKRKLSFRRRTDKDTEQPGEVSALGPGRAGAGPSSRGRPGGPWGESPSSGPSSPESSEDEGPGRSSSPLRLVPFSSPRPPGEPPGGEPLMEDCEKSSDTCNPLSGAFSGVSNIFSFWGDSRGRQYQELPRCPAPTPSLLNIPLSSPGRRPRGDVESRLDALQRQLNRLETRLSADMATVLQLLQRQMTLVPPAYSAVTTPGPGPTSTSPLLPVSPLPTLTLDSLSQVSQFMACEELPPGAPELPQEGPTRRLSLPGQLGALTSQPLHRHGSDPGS

Row | Compound | hERG current change (%, negative = inhibition) at 1uM
1 | COC(=O)c1c(N2C(=O)Nc3ccccc3N2O)sc2c1CCCC2 | 5.18%
2 | CCOC(=O)C(N)CSC1CC(=O)N(CCc2ccccc2)C1=O.Cl (centres unmarked) | 12.9%
3 | COc1cc(/C=N/n2cnnc2)ccc1OS(=O)(=O)c1ccccc1[N+](=O)[O-] | -11.6%
4 | CCOC(=O)N1CCN(Cc2nc3c(c(=O)n(C)c(=O)n3C)n2Cc2cccc(C)c2)CC1 | -13.3%
5 | COCCNC(=S)N/N=C(\C)c1ccc(Cl)c(Cl)c1Cl | 14.2%
6 | O=C(O)CC(NC(=O)CC(c1ccccc1)c1ccccc1)c1cccc([N+](=O)[O-])c1 (centres unmarked) | 9.61%
7 | CCOc1ccccc1NC(=S)/C(=C(\[O-])c1ccc2c(c1)OCCO2)[n+]1ccc(CC)cc1 | 4.26%
8 | Cc1cccc(C(=O)NCCC(=O)Nc2nc(C)c(Cc3ccc4c(c3)OCO4)s2)c1 | 5.99%
9 | O=C(O)c1ccccc1SCc1csc(-c2ccccc2)n1 | 9.33%
10 | CCCC12CN3CCN(CC(C3)/C1=N\NC(=O)c1ccc(C(C)(C)C)cc1)C2 | -2.85%
11 | COc1cc(NC(=S)NC(=O)c2cc(C)cc(C)c2)ccc1NC(=O)c1cccs1 | 23.4%
12 | O=C(NCc1cccs1)c1cccc(Nc2nc3ccc(Br)cc3[nH]2)c1 | 15.6%
13 | COc1ccc2cc(S(=O)(=O)N3CCOCC3)ccc2c1 | -0.435%
14 | CCOC(=O)CN1NC2(CCC(C(C)(C)C)CC2)NC1=S (centres unmarked) | 18.9%
15 | O=c1[nH]cnc2c1C(c1ccccc1[N+](=O)[O-])c1c(nc[nH]c1=O)O2 | 11.6%
16 | O=C(N/N=C/c1ccccc1F)C(=O)N1CCCCCC1 | -4.65%
17 | O=C1c2ccccc2C(=O)N1CCc1csc(-c2ccccc2)n1 | -9.26%
18 | N/C(=N\OC(=O)COc1ccc2ccccc2c1Br)c1ccccn1 | 15%
19 | O=C(COC(=O)c1ccc(Sc2ccccc2)c([N+](=O)[O-])c1)NC1CCCc2ccccc21 (centres unmarked) | 9.71%
20 | Cc1cc(C)n2c(SCC(=O)Nc3ccccc3)nnc2n1 | 6.2%
21 | Cc1ccccc1/C=C1\CCCc2ccccc2C1=O | 12.6%
22 | Cn1c(=O)cc(OCCCC(=O)NCCN2CCN(c3ccccc3F)CC2)c2ccccc21 | 5.61%
23 | O=S(=O)(Nc1cccc(-c2cn3cccnc3n2)c1)c1ccc(F)cc1 | 7.11%
